Reference: a collection of fitness landscapes (doi:10.1016/j.celrep.2020.107928)
In all, about 81,000 sequences were measured (“one-hybrid fitness for binding parS DNA”: median about -0.17, highest 2% from about 0.51 on). Some of the results follow.

B1: Caulobacter ParB omega fusion; a variant is named by its letters at X, in order, B8GW30 (parent)
chain: MESVVVGEPGMSEGRRGLGRGLSALLGEVDAAPAQAPGEQLGGSREAPIEILQRNPDQPRRTFREEDLEDLSNSIREKGVLQPILVRPSPDTAGEYQIVAGERAWRAAQRAGLKTVPIMVRELDDLAVLEIGIIENVQRADLNVLEEALSYKVLMEKFERTQENIAQTIGKSXSHVANXMRLLXLPDEVQSYLVSGELTAXHARAIAAAADPVALAKQIIEGGLSVRETEALARKAPNLSAGKSKGGRPPRVKDTDTQALESDLSSVLGLDVSIDHRGSTGTLTITYATLEQLDDLCNRLTRGI

Variants of: B1
Assay: one-hybrid fitness for binding parS DNA (scaled: cognate 1, non-cognate 0); higher = stronger binding
Settings: with parS DNA site
In short: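 Values were rescaled so that cognate is 1 and non-cognate is 0. Each is a fitness, the log change in a variant's read ratio to wild type from Illumina reads of plasmids before and after selection, with three replicate libraries pooled and variants under 10 reads dropped. Selection of the Caulobacter ParB libraries, four specificity codons randomised, used E. coli USO with a HIS3 reporter, site 19 bp from the promoter, on M9-minus-histidine with 0.1 mM IPTG and 5 mM 3-AT for 48 hours at 37°C.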

Variant | one-hybrid fitness for binding parS DNA
NSSF | ≤ 0.2
QHNW | ≤ 0.2
MVYS | ≤ 0.2
QAPR | ≤ 0.2
YSTW | ≤ 0.2
IFLF | ≤ 0.2
AQFG | ≤ 0.2
RYGC | 0.914
TFRS | ≤ 0.2
STKL | ≤ 0.2
PSTQ | ≤ 0.2
HPPN | ≤ 0.2
SLKV | ≤ 0.2
SPTP | ≤ 0.2
LSRE | ≤ 0.2
GHSS | ≤ 0.2
NHRT | ≤ 0.2
MPYL | ≤ 0.2
ERHM | ≤ 0.2
YRMN | ≤ 0.2
WSCE | ≤ 0.2

Variant | one-hybrid fitness for binding parS DNA
NEAC | ≤ 0.2
THPD | ≤ 0.2
RHLC | 0.928
MSVF | ≤ 0.2
ATSI | ≤ 0.2
CACS | ≤ 0.2
QAVL | ≤ 0.2
SNPE | ≤ 0.2
WQSY | ≤ 0.2
MAQT | ≤ 0.2
LKVT | ≤ 0.2
KREI | ≤ 0.2
DRGN | ≤ 0.2
NLSD | ≤ 0.2
CTYL | ≤ 0.2
MNYG | ≤ 0.2
CPSW | ≤ 0.2
QWVC | ≤ 0.2
EERG | ≤ 0.2
IMIV | ≤ 0.2
YKDD | ≤ 0.2

Variant | one-hybrid fitness for binding parS DNA
VEAS | ≤ 0.2
MHQR | ≤ 0.2
TTNL | ≤ 0.2
DSLD | ≤ 0.2
TLHP | ≤ 0.2
LNIG | ≤ 0.2
LAES | ≤ 0.2
VPVQ | ≤ 0.2
GYQN | ≤ 0.2
TLGL | ≤ 0.2
TGGK | ≤ 0.2
PTIG | ≤ 0.2
VHAN | ≤ 0.2
PKEV | ≤ 0.2
RDTT | ≤ 0.2
RPDK | ≤ 0.2
QYHM | ≤ 0.2
QYLP | ≤ 0.2
HPSR | ≤ 0.2
DPMR | ≤ 0.2
AGNP | ≤ 0.2

Variant | one-hybrid fitness for binding parS DNA
PYHT | ≤ 0.2
ITPA | ≤ 0.2
AGSI | ≤ 0.2
MFLS | ≤ 0.2
FVNW | ≤ 0.2
SRNI | ≤ 0.2
AITI | ≤ 0.2
RRDH | ≤ 0.2
SHIS | ≤ 0.2
KRII | ≤ 0.2
TFFR | ≤ 0.2
VLIY | ≤ 0.2
DCLS | ≤ 0.2
YDKR | ≤ 0.2
QRNG | ≤ 0.2
RHKH | 0.248
RYNR | ≤ 0.2
ALGN | ≤ 0.2
QALC | ≤ 0.2
TDSE | ≤ 0.2
CAHY | ≤ 0.2
